The supplement of paper PMC10037445
Values joined by “and” are separate entries in the source; they are usually repeats but may differ in a detail not shown here. Equal values may be shown once. Over roughly 2,900 compounds, “NF-kB SEAP reporter activity, fold change vs agonist alone” has its median near 0.99; the highest 2% begin near 2.6. The list shows a part of the results.

How the values were obtained:
[1] = tested on: RAW-Dual; experiment: NF-kB SEAP reporter activity, fold change vs agonist alone; cytotoxicity flag (confluency mask): not cytotoxic; higher = enhanced NF-kB activity
In short: (§1)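 RAW-Dual macrophages (50,000 cells/well in DMEM, 384-well plates) received 50 nL of library stock by pin tool, then a PRR agonist 1 h later, and were kept at 37 °C, 5% CO2. After 20 hours, supernatant was read for IRF by QuantiLuc luminescence and for NF-κB by QuantiBlue absorbance at 620 nm. Reporter activity is fold change over agonist-alone wells. Cytotoxic wells had IncuCyte confluency below 70% of agonist controls in both mask sets.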

[2] = tested on: RAW-Dual; experiment: NF-kB SEAP reporter activity, fold change vs agonist alone; higher = enhanced NF-kB activity
In short: as §1

[3] = tested on: RAW-Dual; experiment: NF-kB SEAP reporter activity, fold change vs agonist alone; cytotoxicity flag (confluency mask): cytotoxic (confluency <70% of control); higher = enhanced NF-kB activity
In short: as §1

[4] = agonist: ODN 1826 (TLR9) 0.5 ug/mL
[5] = agonist: Pam2CSK4 (TLR2/6) 0.1 ug/mL
[6] = agonist: Pam3CSK4 (TLR2/1) 0.1 ug/mL
[7] = library stock concentration (final ~1000-fold dilution): 10 mM, cytotoxicity flag (confluency mask): not cytotoxic, agonist: Imiquimod (TLR7) […]
[8] = library stock concentration (final ~1000-fold dilution): 10 mM, cytotoxicity flag (confluency mask): not cytotoxic, agonist: MPLA (TLR4) […]
[9] = library stock concentration (final ~1000-fold dilution): 10 mM water, cytotoxicity flag (confluency mask): not cytotoxic, agonist: Imiquimod (TLR7) […]
[10] = library stock concentration (final ~1000-fold dilution): 10 mM water, cytotoxicity flag (confluency mask): not cytotoxic, agonist: MPLA (TLR4) […]

Nc1nc(N)c2nc(-c3ccccc3)c(N)nc2n1 (library stock concentration (final ~1000-fold dilution): 10 mM)
NF-kB SEAP reporter activity ([1]; agonist: LPS (TLR4) 0.1 ug/mL): 1.2 | NF-kB SEAP reporter activity [1, 4]: 1.19 | NF-kB SEAP reporter activity [1, 5]: 1.27 | NF-kB SEAP reporter activity [1, 6]: 1.23

Nc1nc(N)c2nc(-c3ccccc3)c(N)nc2n1
NF-kB SEAP reporter activity [2, 7]: 1.09 | NF-kB SEAP reporter activity [2, 8]: 1.08

CCO.N#CC(=C(\N)Sc1ccccc1N)/C(C#N)=C(/N)Sc1ccccc1N (library stock concentration (final ~1000-fold dilution): 10 mM)
NF-kB SEAP reporter activity ([1]; agonist: LPS (TLR4) 0.1 ug/mL): 0.241 | NF-kB SEAP reporter activity [1, 4]: 0.368 | NF-kB SEAP reporter activity [1, 5]: 0.0792 | NF-kB SEAP reporter activity [1, 6]: 0.146

CCO.N#CC(=C(\N)Sc1ccccc1N)/C(C#N)=C(/N)Sc1ccccc1N
NF-kB SEAP reporter activity [2, 7]: 0.206 | NF-kB SEAP reporter activity [2, 8]: 0.236

COc1cc(F)c(C(C)C)cc1-c1ccc(C(F)(F)F)cc1CN1C(=O)OC(c2cc(C(F)(F)F)cc(C(F)(F)F)c2)C1C (configuration not stated)
NF-kB SEAP reporter activity [2, 7]: 0.991 | NF-kB SEAP reporter activity [2, 8]: 1.06

COc1cc(F)c(C(C)C)cc1-c1ccc(C(F)(F)F)cc1CN1C(=O)OC(c2cc(C(F)(F)F)cc(C(F)(F)F)c2)C1C (configuration not stated) (library stock concentration (final ~1000-fold dilution): 10 mM)
NF-kB SEAP reporter activity ([1]; agonist: LPS (TLR4) 0.1 ug/mL): 1.06 | NF-kB SEAP reporter activity [1, 4]: 1.03 | NF-kB SEAP reporter activity [1, 5]: 0.902 | NF-kB SEAP reporter activity [1, 6]: 0.986

N=C(N)NCCCCC(N)C(=O)O (configuration not stated) (library stock concentration (final ~1000-fold dilution): 10 mM water)
NF-kB SEAP reporter activity ([1]; agonist: LPS (TLR4) 0.1 ug/mL): 1.12 | NF-kB SEAP reporter activity [1, 4]: 1.12 | NF-kB SEAP reporter activity [1, 5]: 1.13 | NF-kB SEAP reporter activity [1, 6]: 1.06

N=C(N)NCCCCC(N)C(=O)O (configuration not stated)
NF-kB SEAP reporter activity [2, 9]: 0.998 | NF-kB SEAP reporter activity [2, 10]: 1.03

CC(C)C(=O)c1c(C(C)C)nn2ccccc12
NF-kB SEAP reporter activity [2, 8]: 1.54

CC(C)C(=O)c1c(C(C)C)nn2ccccc12 (library stock concentration (final ~1000-fold dilution): 10 mM)
NF-kB SEAP reporter activity ([1]; agonist: LPS (TLR4) 0.1 ug/mL): 1.73 | NF-kB SEAP reporter activity [1, 4]: 1.58 | NF-kB SEAP reporter activity [1, 5]: 1.47 | NF-kB SEAP reporter activity [1, 6]: 1.57

O=C(c1ccccc1)c1ccc2nc(NC(=O)c3csc(C4CCN(c5ncnc6ccsc56)CC4)n3)[nH]c2c1 (library stock concentration (final ~1000-fold dilution): 10 mM)
NF-kB SEAP reporter activity ([1]; agonist: LPS (TLR4) 0.1 ug/mL): 2.75 and 2.17 | NF-kB SEAP reporter activity [1, 4]: 1.57 and 1.25 | NF-kB SEAP reporter activity [1, 5]: 0.384 and 0.435 | NF-kB SEAP reporter activity [1, 6]: 0.694 and 0.75

Cn1c(N2CCCCS2(=O)=O)nc(C(=O)NCc2ccc(F)cc2)c(O)c1=O
NF-kB SEAP reporter activity [2, 7]: 0.565 | NF-kB SEAP reporter activity [2, 8]: 0.6

Cn1c(N2CCCCS2(=O)=O)nc(C(=O)NCc2ccc(F)cc2)c(O)c1=O (library stock concentration (final ~1000-fold dilution): 10 mM)
NF-kB SEAP reporter activity ([1]; agonist: LPS (TLR4) 0.1 ug/mL): 1.11 | NF-kB SEAP reporter activity [1, 4]: 0.823 | NF-kB SEAP reporter activity [1, 5]: 0.981 | NF-kB SEAP reporter activity [1, 6]: 0.808

C=CC1(C)CC(OC(=O)CSCCN(CC)CC)C2(C)C(C)CCC3(CCC(=O)C32)C(C)C1O.O=C(O)/C=C/C(=O)O (configuration not stated) (library stock concentration (final ~1000-fold dilution): 10 mM)
NF-kB SEAP reporter activity ([1]; agonist: LPS (TLR4) 0.1 ug/mL): 1.37 | NF-kB SEAP reporter activity [1, 4]: 0.712 | NF-kB SEAP reporter activity [1, 5]: 0.821 | NF-kB SEAP reporter activity [1, 6]: 0.841

C=CC1(C)CC(OC(=O)CSCCN(CC)CC)C2(C)C(C)CCC3(CCC(=O)C32)C(C)C1O.O=C(O)/C=C/C(=O)O (configuration not stated)
NF-kB SEAP reporter activity [2, 8]: 1.13

COc1cccc(C(N)=O)c1 (library stock concentration (final ~1000-fold dilution): 10 mM)
NF-kB SEAP reporter activity ([1]; agonist: LPS (TLR4) 0.1 ug/mL): 1.31 | NF-kB SEAP reporter activity [1, 4]: 0.972 | NF-kB SEAP reporter activity [1, 5]: 1.23 | NF-kB SEAP reporter activity [1, 6]: 0.844

COc1cccc(C(N)=O)c1
NF-kB SEAP reporter activity [2, 8]: 1.03

CC(C)NCC(O)COc1cccc2[nH]ccc12 (configuration not stated)
NF-kB SEAP reporter activity [2, 7]: 1.21 | NF-kB SEAP reporter activity [2, 8]: 1.14

CC(C)NCC(O)COc1cccc2[nH]ccc12 (configuration not stated) (library stock concentration (final ~1000-fold dilution): 10 mM)
NF-kB SEAP reporter activity ([1]; agonist: LPS (TLR4) 0.1 ug/mL): 1.45 | NF-kB SEAP reporter activity [1, 4]: 1.3 | NF-kB SEAP reporter activity [1, 5]: 1.33 | NF-kB SEAP reporter activity [1, 6]: 1.21

Nc1ccn(CC(CO)OCP(=O)(O)O)c(=O)n1 (configuration not stated) (library stock concentration (final ~1000-fold dilution): 10 mM water)
NF-kB SEAP reporter activity ([1]; agonist: LPS (TLR4) 0.1 ug/mL): 1.2 | NF-kB SEAP reporter activity [1, 4]: 1.23 | NF-kB SEAP reporter activity [1, 5]: 1.32 | NF-kB SEAP reporter activity [1, 6]: 1.29

Nc1ccn(CC(CO)OCP(=O)(O)O)c(=O)n1 (configuration not stated)
NF-kB SEAP reporter activity [2, 9]: 0.956 | NF-kB SEAP reporter activity [2, 10]: 1.04

CC1COC2=C1C(=O)C(=O)c1c2ccc2c1CCCC2(C)C (configuration not stated)
NF-kB SEAP reporter activity [2, 7]: 0.935 | NF-kB SEAP reporter activity [2, 8]: 0.895

CC1COC2=C1C(=O)C(=O)c1c2ccc2c1CCCC2(C)C (configuration not stated) (library stock concentration (final ~1000-fold dilution): 10 mM)
NF-kB SEAP reporter activity ([1]; agonist: LPS (TLR4) 0.1 ug/mL): 0.845 | NF-kB SEAP reporter activity [1, 4]: 0.682 | NF-kB SEAP reporter activity [1, 5]: 1.06 | NF-kB SEAP reporter activity [1, 6]: 0.896

CC/C(=C(\c1ccc(O)cc1)c1ccc(OCCNC)cc1)c1ccccc1.Cl
NF-kB SEAP reporter activity ([2]; library stock concentration (final ~1000-fold dilution): 10 mM, cytotoxicity flag (confluency mask): cytotoxic (confluency <70% of control), agonist: Imiquimod (TLR7) […]): 0.387 | NF-kB SEAP reporter activity ([2]; library stock concentration (final ~1000-fold dilution): 10 mM, cytotoxicity flag (confluency mask): cytotoxic (confluency <70% of control), agonist: MPLA (TLR4) […]): 0.632

CC/C(=C(\c1ccc(O)cc1)c1ccc(OCCNC)cc1)c1ccccc1.Cl (library stock concentration (final ~1000-fold dilution): 10 mM)
NF-kB SEAP reporter activity ([3]; agonist: LPS (TLR4) 0.1 ug/mL): 0.354 | NF-kB SEAP reporter activity [3, 4]: 0.211 | NF-kB SEAP reporter activity [3, 5]: 0.157 | NF-kB SEAP reporter activity [3, 6]: 0.135

COc1cc2nccc(Oc3ccc(NC(=O)c4cn(C(C)C)c(=O)n(-c5ccc(F)cc5)c4=O)cc3F)c2cc1OC (library stock concentration (final ~1000-fold dilution): 10 mM)
NF-kB SEAP reporter activity ([1]; agonist: LPS (TLR4) 0.1 ug/mL): 0.492 | NF-kB SEAP reporter activity [1, 4]: 0.596 | NF-kB SEAP reporter activity [1, 5]: 0.324 | NF-kB SEAP reporter activity [1, 6]: 0.402
